Among all 310,000 compounds or so, about 2,200 (0.71%) showed an effect of 50% or more. Effects have a minus sign here. The list shows a part of the results.
Target: human ether-à-go-go-related gene (hERG) potassium channel (human, UniProt Q12809)
Assay: primary screen, population patch clamp on CHO cells stably expressing hERG

human ether-à-go-go-related gene (hERG) potassium channel, sequence (Q12809 whole entry, looked up): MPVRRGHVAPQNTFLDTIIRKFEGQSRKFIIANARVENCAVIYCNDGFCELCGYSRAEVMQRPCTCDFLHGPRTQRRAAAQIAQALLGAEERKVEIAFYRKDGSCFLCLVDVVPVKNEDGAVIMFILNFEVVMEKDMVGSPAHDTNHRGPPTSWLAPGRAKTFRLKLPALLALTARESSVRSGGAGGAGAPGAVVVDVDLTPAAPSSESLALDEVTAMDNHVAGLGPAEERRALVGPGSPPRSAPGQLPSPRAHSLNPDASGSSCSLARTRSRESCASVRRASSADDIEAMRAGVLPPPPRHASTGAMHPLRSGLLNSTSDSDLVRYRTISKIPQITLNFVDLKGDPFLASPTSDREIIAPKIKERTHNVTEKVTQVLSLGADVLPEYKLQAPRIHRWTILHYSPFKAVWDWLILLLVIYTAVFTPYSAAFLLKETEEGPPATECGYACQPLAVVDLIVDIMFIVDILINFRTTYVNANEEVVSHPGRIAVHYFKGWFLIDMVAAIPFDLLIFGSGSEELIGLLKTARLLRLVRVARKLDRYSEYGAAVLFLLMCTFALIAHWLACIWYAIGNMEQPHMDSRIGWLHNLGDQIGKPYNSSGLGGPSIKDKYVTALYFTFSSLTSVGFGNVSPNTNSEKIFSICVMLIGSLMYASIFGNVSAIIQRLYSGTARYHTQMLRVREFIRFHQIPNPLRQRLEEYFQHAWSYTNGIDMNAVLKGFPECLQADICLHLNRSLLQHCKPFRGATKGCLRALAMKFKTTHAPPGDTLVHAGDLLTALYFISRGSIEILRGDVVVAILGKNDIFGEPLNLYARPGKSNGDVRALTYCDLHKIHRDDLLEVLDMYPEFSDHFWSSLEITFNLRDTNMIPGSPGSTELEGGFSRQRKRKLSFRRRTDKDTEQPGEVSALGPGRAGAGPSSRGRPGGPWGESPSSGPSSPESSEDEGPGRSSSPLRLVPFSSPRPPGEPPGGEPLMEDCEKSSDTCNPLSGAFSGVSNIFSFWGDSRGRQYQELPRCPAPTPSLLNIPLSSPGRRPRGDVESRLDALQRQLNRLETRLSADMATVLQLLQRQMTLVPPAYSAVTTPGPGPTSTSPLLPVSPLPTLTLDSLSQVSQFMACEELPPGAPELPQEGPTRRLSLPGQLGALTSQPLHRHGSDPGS

SMILES | hERG current change (%, negative = inhibition) at 1uM
Cc1nc(N)sc1C(=O)N1N=N1 | 21.1%
Cc1cccc(CC(=O)NCC2CCCCC2)c1 | 9.8%
O=C1CC2(CCN(S(=O)(=O)c3ccccc3)CC2)Oc2ccccc21 | -19.4%
Cl.Nc1cc(Cl)ccc1N1CCCCCC1 | 2.95%
CC12CN3CCN(C1)CC(C)(C3)C2=NO | 9.52%
C(=N\Nc1nc2ccccc2[nH]1)/c1c[nH]c2ccccc12 | 0.968%
COC(=O)C1=C(c2ccc(F)cc2F)C[C@@H]2CC[C@H]1N2C(=O)NCCOc1ccccc1Cl | 9.59%
CS(=O)(=O)N1CCc2cc(S(=O)(=O)NCCNS(=O)(=O)c3ccc4c(c3)CCN4S(C)(=O)=O)ccc21 | 11.4%
CC(C)c1csc(CN2CCC(N3CCC(C(=O)N4CCOCC4)CC3)CC2)n1 | -2.34%
CCC1CCCCN1S(=O)(=O)c1ccc([N+](=O)[O-])cc1 (centres unmarked) | 0.664%
Cc1cc(F)ccc1S(=O)(=O)N1CCC2(CC1)OCCN2S(=O)(=O)c1cccs1 | 2.45%
CC(Sc1nncs1)C(=O)NCc1ccc2c(c1)OCO2 (centres unmarked) | 11.6%
CCOc1ccc(C)cc1S(=O)(=O)N1CCCCC1 | 0.865%
CS(=O)(=O)N(CC(=O)NCC1CCCO1)Cc1ccc(Cl)cc1 (centres unmarked) | 13.9%
CCCCn1c(N)c(N(CCOC)C(=O)c2ccc3c(c2)C(=O)N(c2ccccc2C)C3=O)c(=O)[nH]c1=O | 11.8%
CC(=O)Nc1ccc(NS(=O)(=O)c2ccc(Cl)c(C(=O)O)c2)cc1 | 8.79%
CO/N=C(\c1nonc1N)N1CCN(c2ccc(Cl)cc2[N+](=O)[O-])CC1 | 14.6%
COc1ccc(CCNC(=O)c2cc(-c3ccc(Cl)c(Cl)c3)oc2C)cc1 | 5.31%
O=C(NNS(=O)(=O)c1ccccc1C(F)(F)F)c1cccc(S(=O)(=O)Nc2ccccc2Cl)c1 | 8.56%
Cc1ccc(OCC(=O)NC(C)c2ccc(Cl)c(Cl)c2)c([N+](=O)[O-])n1 (centres unmarked) | 6.7%
CCCNC(=O)C(Cc1ccccc1)NC(=O)c1ccc(C(C)(C)C)cc1 (centres unmarked) | -3.9%
COc1ccccc1N1CCN(/N=C\c2sccc2C)CC1 | 7.51%
O=C(NNC(=S)NC1CC2C=CC1C2)c1cccnc1 (centres unmarked) | 15.3%

SMILES | hERG current change (%, negative = inhibition) at 1uM
Cc1c(C(=O)NCCSCc2c(F)cccc2Cl)cnn1-c1ccc(F)cc1 | 5.51%
O=C(N/N=C\c1ccc(F)cc1)c1ccc(Cn2cc(Br)c([N+](=O)[O-])n2)o1 | -22.6%
O=[N+]([O-])c1ccc(C=Nc2ccc(Cl)cc2Cl)s1 | -2.21%
O=C(NCC1CCCO1)C1CCN(S(=O)(=O)Cc2ccccc2)CC1 (centres unmarked) | 11.1%
Cc1nn(C(C)CC(=O)O)c(C)c1Br (centres unmarked) | 14.5%
CC(OC(=O)c1cccc(NS(C)(=O)=O)c1)C(=O)Nc1ccc2c(c1)OCO2 (centres unmarked) | -17.5%
COc1ccccc1CNC(=O)c1cc(-c2cccnc2)nc2ccccc12 | 5.47%
CC(=O)N(c1cccc(Br)c1)c1nc(C)cc(C)c1C#N | 15.6%
CC(C)(C)n1nnnc1C(c1cccnc1)N(Cc1ccccc1)Cc1cccs1 (centres unmarked) | 16.8%
O=C(Cn1c(NCCO)nc2ccccc21)c1ccccc1 | 12.9%
Cc1cccc(C(C)C)c1NC(=O)Cc1ccc(S(=O)(=O)N2CCOCC2)s1 | -4.08%
CC(=O)c1ccc(N2C(=NC(=O)C(C)C)SC3CS(=O)(=O)CC32)cc1 (centres unmarked) | 9.13%
CN(Cc1ccccc1)C(=O)Cn1cccc1C(=O)c1ccccc1 | 14.5%
COc1ccc(NC(=O)CCN2CCN(S(=O)(=O)c3ccc(F)cc3)CC2)cc1 | 7.39%
COc1ccc(NC(=O)c2cc(-c3ccccc3)on2)cc1OC | 12.6%
O=C(CCC(=O)NC1CCN(Cc2ccccc2)CC1)NCc1ccco1 | 4.92%
CCn1c(NN=O)nc2ccccc21 | 9.1%
COc1ccccc1N1CCN(C(=S)NC(=O)/C=C/c2ccccc2)CC1 | 3.66%
CCCC1Cc2c(sc(N)c2C#N)CO1 (centres unmarked) | 2.23%
CCN(CC)P(=S)(c1c(C)nc2ccccn12)c1c(C)nc2ccccn12 | 10.3%
Clc1cccc(Cl)c1Cn1c(-c2cccnc2Cl)nc2ccccc21 | -5.16%
Cc1ccc(CSCC(=O)Nc2ccccc2C(=O)O)cc1 | 19.3%
COCc1cc(C)nc2oc(C(=O)c3ccccc3)c(N)c12 | 4.77%

SMILES | hERG current change (%, negative = inhibition) at 1uM
CC(=O)N1N=C(c2ccco2)CC1c1ccco1 (centres unmarked) | 15.4%
CC(C)(C)OC(=O)N1CCC2(CC1)C(C#N)=C(N)OC1=C2C(=O)CCC1 | 3.6%
CC(Sc1nnc(NC(=O)c2cc3ccccc3oc2=O)s1)c1ccccc1 (centres unmarked) | 9.53%
COc1cc(N)c(Cl)cc1C(=O)OCC(=O)N1CCCC1 | 15.1%
O=C(O)c1ccc2c(c1)C(=O)N(NC(=O)c1ccc(O)cc1)C2=O | 24%
COc1ccc(CNC(=O)CSc2nn3c(=O)c(C(C)(C)C)nnc3s2)cc1OC | 3.74%
Fc1ccccc1N1CCN(C2CCCN(Cc3cccc(C(F)(F)F)c3)C2)CC1 (centres unmarked) | 6.9%
COc1ccccc1NC(=O)COC(=O)CNC(=O)c1ccc(OC)c(OC)c1 | 9.03%
CC(C)CC(C(=O)NC(=O)NCc1ccccc1)N1C(=O)c2ccccc2C1=O (centres unmarked) | 8.16%
COc1ccc(S(=O)(=O)Nc2ccc(O)c(Sc3nc4ccccc4s3)c2)cc1 | 22.2%
CC1CC1C(=O)OCC(=O)NNC(=O)COc1ccc(Br)cc1 (centres unmarked) | 7.3%
O=C(N/N=C/c1cccnc1)c1ccccc1[N+](=O)[O-] | 0.672%
O=C(O)Cc1ccc(NC(=O)c2cnccn2)cc1 | 17.2%
CN1CCCCC1=NCCCn1cnc2c1c(=O)n(C)c(=O)n2C.Cl | 7.73%
COC(=O)C1(C(=O)OC)NOC2C(=O)N(N(C)c3ncc(C(F)(F)F)cc3Cl)C(=O)C21 (centres unmarked) | 14.5%
CC(=O)Cc1nsc(Nc2ccccc2)n1 | 11.4%
COc1cc(C2c3c(-c4ccccc4)n[nH]c3C(=O)N2c2ccc(C(=O)O)cc2)ccc1O (centres unmarked) | 12.3%
CC1=C(C(=O)OC(C)C)C(c2ccccc2)NC(=S)N1C (centres unmarked) | 10.7%
O=C(NC1CCN(S(=O)(=O)c2ccc(F)cc2)CC1)c1ccc(F)cc1 | 10.2%
COc1ccc(-c2n[nH]c(=S)n2/N=C/c2cccn2C)cc1 | 11.1%
COC(=O)Cn1cnc2sc(C)c(S(=O)(=O)N3CCN(c4ccccc4OC)CC3)c2c1=O | 1.61%
CCn1c(SCC(=O)Nc2ccc3c(c2)OCO3)nnc1C(C)C | 0.97%
CN(C)CCNC(=S)Nc1ccc(Cl)cc1Cl.Cl | 1.63%

SMILES | hERG current change (%, negative = inhibition) at 1uM
O=C(CNC(=O)C(c1ccccc1)c1ccccc1)N/N=C\c1ccc2c(c1)OCO2 | 13.7%
COc1ccc(OCCCN2CCCCCC2)cc1.O=C(O)C(=O)O | -4.95%
O=C(NC1CCCC1)c1ccc2c(c1)N(Cc1ccccc1)CCS2 | -1.52%
COc1ccc(NC(=O)Nc2ccccc2OC)cc1 | 15.6%
CCN1CCN(c2c(C(=O)c3ccc(OC)cc3)cnc3ccccc23)CC1 | -67.9%
Cc1cc(C)cc(C(=O)NC(CC(N)=O)c2ccc(N3CCN(C)CC3)c([N+](=O)[O-])c2)c1 (centres unmarked) | 12.7%
c1ccc(-c2ncc3ccccn23)cc1 | 8.85%
COc1ccc(Nc2ccccc2C(=O)O)cc1 | 12.8%
COc1ccc2c(C)c(CCC(=O)NC3CC3)c(=O)oc2c1 | 11.2%
CCN1CC2=C(OC(N)=C(C#N)C2c2ccccc2)/C(=C\c2ccccc2)C1 (centres unmarked) | 11.1%
Cc1ccc(S(=O)(=O)N(C)C)cc1NC(=O)COC(=O)c1c(C)noc1C | 7.34%
Cl.N=c1c2c(n(Cc3ccc(F)cc3)c3c1CCC3)CCCC2 | 1.67%
COc1ccc(N2CCN(CCCNC(=S)Nc3c(C)cccc3C)CC2)cc1 | -6.51%
Cc1ccc(Cl)cc1-n1c(=O)cc(N2CCN(C(=O)c3ccco3)CC2)[nH]c1=O | 12%
COc1cc(-c2nnc(SCc3ccccc3Cl)o2)cc(OC)c1OC | 7.78%
Cc1cccc(C)c1NC(=O)Cn1nnnc1N | 8.75%
CC(C)N1CC=C2C(C#N)=C(N)C(C#N)(C#N)C(c3ccccc3)C2C1 (centres unmarked) | -0.618%
COc1ccc(C)cc1NC(=O)CSc1nnc(COc2ccc(Cl)cc2)n1Cc1ccco1 | 7.71%
Cc1ccc(NC(=O)c2ccccc2OCc2c(C)noc2C)cc1S(=O)(=O)N(C)C | 6.52%
N#Cc1sc2nc(-c3cccs3)cc(-c3ccccc3)c2c1N | 10.1%
